The results in this text go back to publication PMC4336329 (PLoS ONE, 2015).

The whole screen tested about 310,000 compounds, of which about 2,200 (0.71%) showed an effect of 50% or more. Effects have a minus sign here. The list shows a part of the results.

human ether-à-go-go-related gene (hERG) potassium channel, sequence (Q12809 whole entry, looked up): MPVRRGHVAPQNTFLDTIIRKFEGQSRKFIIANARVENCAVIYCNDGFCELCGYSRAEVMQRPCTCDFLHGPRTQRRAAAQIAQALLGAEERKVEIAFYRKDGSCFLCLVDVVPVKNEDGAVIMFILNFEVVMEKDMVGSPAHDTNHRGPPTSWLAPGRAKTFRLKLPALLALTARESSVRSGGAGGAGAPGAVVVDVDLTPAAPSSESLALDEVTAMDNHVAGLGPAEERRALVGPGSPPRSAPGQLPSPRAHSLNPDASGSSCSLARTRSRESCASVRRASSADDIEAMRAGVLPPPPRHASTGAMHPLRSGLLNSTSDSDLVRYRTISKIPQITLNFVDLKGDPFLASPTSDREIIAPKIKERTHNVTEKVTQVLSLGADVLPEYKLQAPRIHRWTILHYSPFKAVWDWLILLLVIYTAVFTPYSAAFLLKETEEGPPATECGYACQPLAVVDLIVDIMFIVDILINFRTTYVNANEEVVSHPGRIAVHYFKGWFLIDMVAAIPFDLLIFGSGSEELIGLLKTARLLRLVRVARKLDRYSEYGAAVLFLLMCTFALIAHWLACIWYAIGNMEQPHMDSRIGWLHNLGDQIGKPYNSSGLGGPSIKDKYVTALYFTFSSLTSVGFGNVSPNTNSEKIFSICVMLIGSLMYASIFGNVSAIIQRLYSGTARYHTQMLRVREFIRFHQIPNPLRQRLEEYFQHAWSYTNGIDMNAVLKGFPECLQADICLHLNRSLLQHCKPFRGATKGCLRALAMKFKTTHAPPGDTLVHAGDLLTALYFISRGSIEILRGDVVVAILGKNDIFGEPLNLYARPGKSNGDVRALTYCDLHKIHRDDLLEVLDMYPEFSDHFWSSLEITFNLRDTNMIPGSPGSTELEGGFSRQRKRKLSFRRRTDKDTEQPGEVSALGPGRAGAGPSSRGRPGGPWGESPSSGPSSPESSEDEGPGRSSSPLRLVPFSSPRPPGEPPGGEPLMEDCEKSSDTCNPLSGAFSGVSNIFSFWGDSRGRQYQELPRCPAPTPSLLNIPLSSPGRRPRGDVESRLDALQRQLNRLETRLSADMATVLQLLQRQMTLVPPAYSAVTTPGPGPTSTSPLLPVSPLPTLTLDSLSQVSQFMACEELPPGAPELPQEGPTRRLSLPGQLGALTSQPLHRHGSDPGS

This assay concerns the target human ether-à-go-go-related gene (hERG) potassium channel (human, UniProt Q12809). The assay can be described thus: primary screen, population patch clamp on CHO cells stably expressing hERG.
Regarding `O=C(C(=O)N1CCN(c2cccc(Cl)c2)CC1)N1CCCCC1`, the “hERG current change (%, negative = inhibition) at 1uM” value is 12.1%.

`Cc1ccn(C(=O)c2cc3ccccc3oc2=O)n1`: the “hERG current change (%, negative = inhibition) at 1uM” value is reported as 5.6%.

With `COc1ccc(OC)c2c1cc(C(=O)N[C@H](C(=O)N1CCC(C(=O)O)CC1)C(C)C)n2C`, the “hERG current change (%, negative = inhibition) at 1uM” value was found to be 9.57%.

As for `COc1ccc(S(=O)(=O)N2CCc3ccccc3C2)cc1`, the “hERG current change (%, negative = inhibition) at 1uM” value was 16.2%.

On to `O=c1c2ccccc2c(C=NC2CCS(=O)(=O)C2)c(O)n1-c1ccccc1` (stereo not drawn), for which the “hERG current change (%, negative = inhibition) at 1uM” value is listed as 12.9%.

In the case of `COC(=O)NNC(=O)COc1cc(C)ccc1C`, the “hERG current change (%, negative = inhibition) at 1uM” value was determined as 11.5%.

For `N#C/C(=C\c1ccc[nH]1)C(=O)Nc1ccccc1[N+](=O)[O-]`, the “hERG current change (%, negative = inhibition) at 1uM” value was determined as 11.9%.

With `O=S(=O)(c1cccc(C(F)(F)F)c1)N1CCN(c2nnnn2-c2ccccc2)CC1`, the “hERG current change (%, negative = inhibition) at 1uM” value is reported as 11.9%.

As for `CC1CCCC(C)N1CCCNC(=O)Cn1cc2c(n1)CCCC2` (stereo not drawn), the “hERG current change (%, negative = inhibition) at 1uM” value was determined as 3.89%.

Turning to `CCC(=O)Nc1ccc(-c2ccc(N3CCN(C)CC3)nn2)cc1`, the “hERG current change (%, negative = inhibition) at 1uM” value was determined as 5.37%.

For the compound `Cc1c(Br)cc(C(=O)N2CCCC2)c(C)c1C`, the “hERG current change (%, negative = inhibition) at 1uM” value stood at 10.2%.

As to `CCOCCCN(C)C1CCN(C(=O)c2oc3ccccc3c2NC(=O)COc2cccc(C)c2)CC1`, the “hERG current change (%, negative = inhibition) at 1uM” value is on record as -62.4%.

Take `CCOC(=O)N1CCN(c2cc(C)nc3nc(C)nn23)CC1`: the “hERG current change (%, negative = inhibition) at 1uM” value was -22%.

For `O=C(NCc1cccnc1)C1CCN(S(=O)(=O)c2cccc(C(F)(F)F)c2)CC1`, the “hERG current change (%, negative = inhibition) at 1uM” value was found to be 12.4%.

Turning to `Cc1ccc(S(=O)(=O)N2CCN(C(=O)CCC(=O)NCc3cccc(C(F)(F)F)c3)CC2)cc1`, the “hERG current change (%, negative = inhibition) at 1uM” value was -10.1%.

For `CCOC(=O)c1ccc2nc(CCC(=O)N[C@H](C(=O)OC)C(C)C)c(=O)n(CC)c2c1`, the “hERG current change (%, negative = inhibition) at 1uM” value was 10.4%.

`COc1ccc(C2NCCc3sccc32)cc1` (stereo not drawn): the “hERG current change (%, negative = inhibition) at 1uM” value was determined as 4.92%.

On to `O=C(CN1C(=O)NC2(CCCc3ccccc32)C1=O)N1CCN(C(=O)c2ccco2)CC1` (stereo not drawn), for which the “hERG current change (%, negative = inhibition) at 1uM” value is reported as 1.49%.

Take `CCCCNC(=O)c1nn2c(C(F)(F)F)cc(-c3ccc(OC)cc3)nc2c1Br`: the “hERG current change (%, negative = inhibition) at 1uM” value stood at 6.48%.

Turning to `COc1ccc(OC)c(S(=O)(=O)N(C)CC(=O)Nc2ccccc2OC)c1`, the “hERG current change (%, negative = inhibition) at 1uM” value turned out to be 4.37%.

Turning to `CC1Sc2ccc(S(=O)(=O)N3CCC(C(=O)Nc4ccc(Cl)cc4)CC3)cc2NC1=O` (stereo not drawn), the “hERG current change (%, negative = inhibition) at 1uM” value is 14.5%.

Turning to `O=[N+]([O-])c1ccc(Cc2ccncc2)cc1`, the “hERG current change (%, negative = inhibition) at 1uM” value is -2.68%.

As for `COc1cc(Br)c(-c2sc(Nc3ccccc3)n[n+]2-c2ccccc2)cc1OC.[Cl-]`, the “hERG current change (%, negative = inhibition) at 1uM” value is -5.97%.

For `Cc1[nH]nc(N=CC2=C(O)CC(C)(C)CC2=O)c1-c1ccc(Cl)cc1`, the “hERG current change (%, negative = inhibition) at 1uM” value is -5.63%.
